Experimental data as given in PubChem BioAssay AID1347417 (National Center for Advancing Translational Sciences (NCATS), 2020).
Out of some 120,000 compounds screened, about 5,300 (4.4%) were called active. The inconclusive results got no clear call from the source; some entries with a clear call stand among them for comparison. Calls follow the shape of the dose curve; as a rule, active = well fitted inhibition curve with a large enough effect; inconclusive = small, poorly fitted or top-dose-only effect; inactive = no such curve, though single readings can be large or run the other way. A potency beside an inconclusive call is a rough fit, not a confirmed value.

Experiment: qHTS Primary assay for Inhibitors of Plasmodium falciparum Dd2 growth in vitro; also: nearly all actives have a fitted effect of over 65% in size;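 as to activity, negative = inhibition: plate controls were DMSO vehicle for no effect and reference drug for full effect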
Conditions: P. falciparum Dd2 growth, SYBR Green, 72 h; activity, negative = inhibition: at 28.9 µM (top of the series) unless noted; series mostly up to 28.9 µM
Method in brief: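 Readout: SYBR Green fluorescence, 485 nm excitation, 535 nm emission, after ~16 h lysis at 37C. Before that, Dd2-infected red cells (2.5% hematocrit) grew 72 h with compound, 29 uM top final concentration.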
Potency is read from the fitted curve at half-maximal effect; tags tell the direction and shape of the fitted curve.

Row | SMILES | Potency | activity, negative = inhibition | outcome
1 | CCc1ccccc1NC(=O)Nc1ccc2c(c1)N(CC)C(=O)c1ccccc1S2 | inconclusive: 12.6 µM [inhibitor, single point] | – | –
2 | O=C1CCN(S(=O)(=O)c2ccc3c(c2)CCC3)CCCC(C(=O)NCc2ccncc2)CCN1 (stereo not given) | inconclusive: 10 µM [inhibitor, partial curve, poor fit] | – | –
3 | O=C(NC[C@H]1Cn2c(-c3ccc(Cl)cc3)cnc2CO1)Nc1ccccc1 | inconclusive: 1.26 µM [inhibitor, single point] | – | –
4 | CCc1noc(Cc2c(C)nn(-c3ccccc3)c2C)n1 | – | inactive: -11.6% | –
5 | CCCS(=O)(=O)N1CCC(Oc2ccccc2-c2nc(C3CC3)no2)C1 (stereo not given) | – | inactive: -14.6% | –
6 | O=C(c1ccccc1OCC1CCCN(Cc2nccs2)C1)N1CCCCC1 (stereo not given) | inconclusive: 15.8 µM [inhibitor, single point] | – | –
7 | CCOc1ccccc1CNC(=O)c1cc2n(n1)CCCN(Cc1ccc(C)cc1)C2=O | inconclusive: 11.2 µM [inhibitor, single point] | – | –
8 | Cc1cc(NC(=O)CCS(=O)(=O)c2cc(Br)cc3c2N(C(=O)C2CC2)CC3)ccc1Br | active: 4.47 µM | – | –
9 | COc1ccc(CNC(=O)C[C@@H]2CCNC[C@@H]2Cc2cc(CSc3ccccc3)on2)cc1 | inconclusive: 2.51 µM [inhibitor, single point] | – | –
10 | CCOC(=O)c1ccc2c(c1)N(C(CC)C(=O)Nc1ccccc1OC)C(=O)c1ccccc1S2 (stereo not given) | inconclusive: 1 µM [inhibitor, full curve, poor fit] | – | –
11 | CC(C)C1=NOC2(CCCN(CC3CCCCC3)C2)C1 (stereo not given) | inconclusive: 31.6 µM [inhibitor, single point] | – | –
12 | COC(=O)N1CCC2(C1)OC(=O)Nc1cnccc12 (stereo not given) | – | inactive: 1.98% [at 44.1 µM] | –
13 | COCc1cccc(-c2n[nH]c3c2CC(=O)N(CCOc2ccccc2)C3)c1 | inconclusive: 31.6 µM [inhibitor, single point] | – | –
14 | COc1ccc(-c2noc(-c3cccn3CC(=O)NCc3ccc(F)cc3Cl)n2)cc1F | – | inactive: 20.7% | –
15 | O=C(NCc1cc(F)cc(F)c1)c1ccc(Cn2ccn3nc4c(c3c2=O)CCCC4)cc1 | inconclusive: 8.91 µM [inhibitor, partial curve, poor fit] | – | –
16 | CS(=O)(=O)NC1CCN(c2cc(C3CC(N)C3)nc(N)n2)CC1 (stereo not given) | – | inactive: 0.125% | –
17 | O=C(Nc1ccc2c(c1)OCCO2)NC1CCN(C(=O)N2CC3CC(C2)[C@H]2CCCC(=O)N2C3)CC1 (stereo not given in full) | – | – | inactive
18 | O=C(NC1CCCc2c1[nH]c1ccccc21)c1ccco1 (stereo not given) | inconclusive: 12.6 µM [inhibitor, single point] | – | –
19 | Cc1cc(Oc2c(C(F)(F)F)oc3c(CN4CCC(C)CC4)c(O)ccc3c2=O)cc(C)c1Cl | active: 0.447 µM | – | –
20 | O=C(Cn1c(=O)oc2cc(S(=O)(=O)N3CCCCCC3)ccc21)NCc1ccccc1Cl | inconclusive: 12.6 µM [inhibitor, single point] | – | –
21 | Cc1ccc(C)c(CN2CCC(CNC(=O)Nc3ccc(Br)cc3F)CC2)c1 | active: 8.91 µM | – | –
22 | COc1ccc(-c2nc(-c3c(C)noc3C)cc3c2cc(C)n3CCN(C)C)cn1 | inconclusive: 1.12 µM [inhibitor, partial curve, poor fit] | – | –

Row | SMILES | Potency | activity, negative = inhibition | outcome
23 | O=C(Nc1ccccc1)[C@H]1CN2CCC1C[C@@H]2Cn1cc(CSc2ccccc2)nn1 (stereo not given in full) | inconclusive: 0.708 µM [inhibitor, full curve, poor fit] | – | –
24 | COc1ccc(Cn2c(=O)c3cccnc3n(CC(=O)Nc3ccc(C)c(F)c3)c2=O)cc1 | inconclusive: 0.126 µM [inhibitor, full curve] | – | –
25 | COc1cc2c(cc1OC)C(COc1ccc3c(C)cc(=O)oc3c1)N(C(=O)C(C)C)CC2 (stereo not given) | inconclusive: 5.62 µM [inhibitor, partial curve, poor fit] | – | –
26 | Cc1cc(C)c(S(=O)(=O)c2nnn3c2nc(NCc2ccc(F)cc2)c2ccccc23)c(C)c1 | – | inactive: -13.3% | –
27 | COC(=O)C1=C(C)N=C2SC=C(CC(=O)NCC3CCCO3)N2C1c1ccc(OC)cc1OC (stereo not given) | – | – | inactive
28 | CCOC(=O)c1nc(Nc2ccc(C(C)=O)cc2)c2ccccc2n1 | – | inactive: -11.1% | –
29 | COc1cccc(C(=O)NCC2CCCN(Cc3ccc(C)cc3)C2)c1OC (stereo not given) | inconclusive: 11.2 µM [inhibitor, partial curve, poor fit] | – | –
30 | Cc1noc2c(NCCCn3ccnc3)cc(-c3cccc(C(F)(F)F)c3)nc12 | inconclusive: 3.16 µM [inhibitor, partial curve, poor fit] | – | –
31 | COc1ccc(-c2cc(C[C@@H]3CC[C@H](O)[C@@H](CNCc4cccc(Cl)c4)O3)no2)cc1 | inconclusive: 0.501 µM [inhibitor, partial curve, poor fit] | – | –
32 | Cc1ccn2c(Nc3ccc4c(c3)OCO4)c(-c3ccc(N(C)C)cc3)nc2c1 | active: 12.6 µM | – | –
33 | NC(=O)c1cccc(CN2CCC3(CC2)Cc2ccccc2N(C(=O)C2CCCC2)C3)c1 | inconclusive: 8.91 µM [inhibitor, partial curve, poor fit] | – | –
34 | COC1CCC12CCN(C(=O)c1cnccc1C)CC2 (stereo not given) | – | inactive: 14.6% | –
35 | Cc1noc([C@@H]2CC(F)(F)CN2C(=O)c2ccoc2C)n1 | – | – | inactive
36 | Cc1nc(Nc2ccc(Cl)cc2)cc(-c2ccccc2)n1 | active: 8.91 µM | – | –
37 | COCC(=O)N1CCC2(CC1)CC(Cc1nc(-c3cccnc3)no1)CCO2 (stereo not given) | inconclusive: 11.2 µM [inhibitor, partial curve, poor fit] | – | –
38 | NC(=O)c1cccc(-c2n[nH]c3c2CC(=O)N(Cc2ccccc2F)C3)c1 | – | inactive: -28.8% [at 44.1 µM] | –
39 | CN1c2cc(C(=O)Nc3ccc(F)c(Cl)c3)ccc2C(=O)N2CCCCC21 (stereo not given) | inconclusive: 4.47 µM [inhibitor, partial curve, poor fit] | – | –
40 | Cc1ccc(-n2c(=O)c3c4c(sc3n(Cc3cccc(Cl)c3)c2=O)CCC4)cc1C | inconclusive: 10 µM [inhibitor, single point] | – | –
41 | O=C(O)CCC(=O)N[C@H]1CCN2C(=O)c3cc(-c4ccc(F)cc4F)ccc3NC(=O)[C@H]12 | – | inactive: 17.1% | –
42 | CCOc1ccc(C2=NC(c3ccc(OC)cc3)=Nc3ccc(Cl)cc3N2)cc1 | inconclusive: 15.8 µM [inhibitor, single point] | – | –
43 | C=CCC(CC=C)(CNC(=O)C(=O)Nc1cc(C)ccc1OC)c1ccc(OC)c(OC)c1 | inconclusive: 17.8 µM [inhibitor, single point] | – | –
44 | O=C(Cn1cc(S(=O)(=O)N2CCCC2)c(S(=O)(=O)N2CCCC2)c1)Nc1cccc(F)c1 | inconclusive: 10 µM [inhibitor, single point] | – | –

Row | SMILES | Potency | activity, negative = inhibition | outcome
45 | CC1=C[C@@H](CC#N)[C@H](C(C)C)C[C@H]1CC(=O)N(C)CCc1ccccn1 | inconclusive: 11.2 µM [inhibitor, single point] | – | –
46 | COCCOCC(=O)N1C[C@@H](Oc2ccccc2)C[C@H]1C(=O)N1CCOCC1 | – | inactive: -2.83% | –
47 | CCOC(=O)c1cn(C2CN(S(=O)(=O)c3ccc(F)cc3F)C2)nn1 | – | – | inactive
48 | Cc1cnc(CC2CCCN(C(=O)C3(c4ccccc4)CC3)C2)n1Cc1ccc(F)cc1 (stereo not given) | inconclusive: 1.58 µM [inhibitor, partial curve, poor fit] | – | –
49 | Cc1cc(C)c2nc(N(Cc3cccnc3)C(=O)c3ccc(S(=O)(=O)N(C)C)cc3)sc2c1 | inconclusive: 10 µM [inhibitor, single point] | – | –
50 | CCN(CC)CCCNC(=O)CSc1c2c(nc3cc(Cl)ccc13)CCCC2 | inconclusive: 14.1 µM [inhibitor, partial curve, poor fit] | – | –
51 | Cc1noc(C)c1[S+](=O)([O-])N1CC(Oc2ccc(F)cc2F)C1 | – | inactive: -11% | –
52 | O=C(c1scc2c1OCCO2)N1CCCC(N2CCN(c3cccc(Cl)c3)CC2)C1 (stereo not given) | – | inactive: -9.98% | –
53 | COc1cc(C2C(C(=O)OCC(C)C)=C(C)N=C3SCCC(=O)N32)ccc1OCc1ccccc1 (stereo not given) | – | inactive: -0.837% | –
54 | Cc1cccc(NC(=O)Cn2nnc(C(=O)Nc3ccc(F)c(Cl)c3)c2N)c1 | – | inactive: 31.1% | –
55 | CCc1ccc(S(=O)(=O)N2CCC(n3cnnc3COC)CC2)cc1 | inconclusive: 17.8 µM [inhibitor, single point] | – | –
56 | COc1cccc(N2C(=O)NC(=NC3CCCC3)C23CCCN(CC2CCCCC2)C3)c1 (stereo not given) | active: 10 µM | – | –
57 | CC(=O)Oc1c(-c2ccc(NC(=O)C(C)C)cc2)c(-c2ccc(F)cc2)nn1-c1ccc(F)cc1 | – | inactive: -13.6% | –
58 | Cc1cccc2sc(N(CCCN(C)C)C(=O)c3ccc(Cl)s3)nc12 | inconclusive: 10 µM [inhibitor, single point] | – | –
59 | COc1cc(NC(=O)c2ccc3c(c2)N(C)C2CCCCCN2C3=O)cc(OC)c1 (stereo not given) | inconclusive: 7.94 µM [inhibitor, partial curve, poor fit] | – | –
60 | COc1cccc(NC(=O)Cn2c(=O)n(-c3ccc(Cl)cc3)c(=O)c3oc4ccccc4c32)c1 | inconclusive: 12.6 µM [inhibitor, partial curve, poor fit] | – | –
61 | CS(=O)(=O)N1CCC(OC2CCN(C(=O)Nc3ccc(F)cc3)CC2)CC1 | inconclusive: 12.6 µM [inhibitor, single point] | – | –
62 | CC(C)NC(=O)c1ccccc1OCC1CCCN(Cc2cccnc2)C1 (stereo not given) | inconclusive: 20 µM [inhibitor, single point] | – | –
63 | CC(C)Cn1c(=O)c2sccc2n2c(CCCC(=O)NCCc3ccccc3)nnc12 | inconclusive: 10 µM [inhibitor, partial curve, poor fit] | – | –
64 | CCN1CCN(c2oc(-c3ccc(COc4ccc(C)cc4)o3)nc2C#N)CC1 | inconclusive: 11.2 µM [inhibitor, single point] | – | –
65 | CCc1ccccc1NC(=O)Cn1c(N2CCc3ccccc3C2)nc(C)cc1=O | inconclusive: 6.31 µM [inhibitor, partial curve, poor fit] | – | –
